The values that follow come from US20210238308A1 (Chugai, published 2021).

Assay in all cases: SPR, Protein L capture
(In general: Surface plasmon resonance follows binding to a sensor surface in real time, without labels.)

Assay [1] addresses T1, PRYSPRY domain of human TRIM21 with N-terminal 6xHis tag (human).
T1 construct: Expressed in E. coli; also called hTRIM21; human TRIM21.PRYSPRY
T1 chain: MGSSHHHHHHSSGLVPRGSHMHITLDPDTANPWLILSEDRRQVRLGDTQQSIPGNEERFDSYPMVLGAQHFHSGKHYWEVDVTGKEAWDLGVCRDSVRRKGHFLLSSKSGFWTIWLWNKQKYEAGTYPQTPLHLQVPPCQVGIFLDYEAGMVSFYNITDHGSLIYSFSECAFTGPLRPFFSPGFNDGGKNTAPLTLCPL

For assay [2], the target named is T2, PRYSPRY domain of mouse TRIM21 with N-terminal 6xHis tag (mouse).
T2 construct: Expressed in E. coli; also called mTRIM21; mouse TRIM21.PRYSPRY
T2 chain: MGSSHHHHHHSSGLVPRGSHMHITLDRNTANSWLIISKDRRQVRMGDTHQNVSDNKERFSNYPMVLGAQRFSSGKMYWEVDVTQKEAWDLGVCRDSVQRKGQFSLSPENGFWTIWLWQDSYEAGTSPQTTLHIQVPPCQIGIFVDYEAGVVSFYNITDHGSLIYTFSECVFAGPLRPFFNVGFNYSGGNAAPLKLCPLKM

Another assay concerns the target T3, human FcRn (human, UniProt P55899 part only; P61769 part only, limits assumed).
T3 construct: also called hFcRn

Sequence of human FcRn (P55899 24-290 limits assumed, form in doubt, chain 1 of 2): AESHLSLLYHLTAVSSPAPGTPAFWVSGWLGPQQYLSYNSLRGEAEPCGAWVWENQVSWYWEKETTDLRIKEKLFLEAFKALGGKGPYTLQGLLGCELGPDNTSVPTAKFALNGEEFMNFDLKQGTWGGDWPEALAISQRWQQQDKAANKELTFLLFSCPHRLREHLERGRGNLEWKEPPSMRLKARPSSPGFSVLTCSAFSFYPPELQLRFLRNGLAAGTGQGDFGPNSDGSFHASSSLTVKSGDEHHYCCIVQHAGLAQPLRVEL
Sequence of human FcRn (P61769 21-119 limits assumed, form in doubt, chain 2 of 2, further chain): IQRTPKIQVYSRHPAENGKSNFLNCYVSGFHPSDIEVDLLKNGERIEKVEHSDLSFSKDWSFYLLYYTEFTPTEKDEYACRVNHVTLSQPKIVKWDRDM

B1: MRAH-G1d/MRAL-KT0 E345W (antibody, human IgG1, kappa)
heavy: QVQLQESGPGLVRPSQTLSLTCTVSGYSITSDHAWSWVRQPPGRGLEWIGYISYSGITTYNPSLKSRVTMLRDTSKNQFSLRLSSVTAADTAVYYCARSLARTTAMDYWGQGSLVTVSS[human IgG1 constant region with E345W (EU numbers) omitted here]
light: DIQMTQSPSSLSASVGDRVTITCRASQDISSYLNWYQQKPGKAPKLLIYYTSRLHSGVPSRFSGSGSGTDFTFTISSLQPEDIATYYCQQGNTLPYTFGQGTKVEIKRTVAAPSVFIFPPSDEQLKSGTASVVCLLNNFYPREAKVQWKVDNALQSGNSQESVTEQDSKDSTYSLSSTLTLSKADYEKHKVYACEVTHQGLSSPVTKSFNRGEC
Regarding B1, the “hTRIM21 binding level ratio (variant/control antibody)” value in assay [1] was determined as 0.516. Also, in assay [2], the “mTRIM21 binding level ratio (variant/control antibody)” value was 2.59. The “hFcRn binding level ratio (variant/control antibody)” value with human FcRn was 0.91.

B2: MRAH-G1d/MRAL-KT0 H433F (antibody, human IgG1, kappa)
heavy: QVQLQESGPGLVRPSQTLSLTCTVSGYSITSDHAWSWVRQPPGRGLEWIGYISYSGITTYNPSLKSRVTMLRDTSKNQFSLRLSSVTAADTAVYYCARSLARTTAMDYWGQGSLVTVSS[human IgG1 constant region with H433F (EU numbers) omitted here]
light: B1 light
notes: copies: 2 + 2
B2: the “hTRIM21 binding level ratio (variant/control antibody)” value in assay [1] is -0.06. Further, the “mTRIM21 binding level ratio (variant/control antibody)” value in assay [2] is -0.271. For the same molecule, the “hFcRn binding level ratio (variant/control antibody)” value with human FcRn stood at 0.23.

B3: MRAH-G1d/MRAL-KT0 H433V (antibody, human IgG1, kappa)
heavy: QVQLQESGPGLVRPSQTLSLTCTVSGYSITSDHAWSWVRQPPGRGLEWIGYISYSGITTYNPSLKSRVTMLRDTSKNQFSLRLSSVTAADTAVYYCARSLARTTAMDYWGQGSLVTVSS[human IgG1 constant region with H433V (EU numbers) omitted here]
light: B1 light
notes: copies: 2 + 2
For B3, the “hTRIM21 binding level ratio (variant/control antibody)” value in assay [1] is -0.101. The “mTRIM21 binding level ratio (variant/control antibody)” value in assay [2] is -0.403. Besides, in the assay with human FcRn, the “hFcRn binding level ratio (variant/control antibody)” value came to 0.62.

B4: MRAH-G1d/MRAL-KT0 H433Q (antibody, human IgG1, kappa)
heavy: QVQLQESGPGLVRPSQTLSLTCTVSGYSITSDHAWSWVRQPPGRGLEWIGYISYSGITTYNPSLKSRVTMLRDTSKNQFSLRLSSVTAADTAVYYCARSLARTTAMDYWGQGSLVTVSS[human IgG1 constant region with H433Q (EU numbers) omitted here]
light: B1 light
notes: copies: 2 + 2
Consider B4, for which, in assay [1], the “hTRIM21 binding level ratio (variant/control antibody)” value is -0.005. Besides, the “mTRIM21 binding level ratio (variant/control antibody)” value in assay [2] is -0.127. Also, the “hFcRn binding level ratio (variant/control antibody)” value with human FcRn was 0.96.

B5: MRAH-G1d/MRAL-KT0 H435A (antibody, human IgG1, kappa)
heavy: QVQLQESGPGLVRPSQTLSLTCTVSGYSITSDHAWSWVRQPPGRGLEWIGYISYSGITTYNPSLKSRVTMLRDTSKNQFSLRLSSVTAADTAVYYCARSLARTTAMDYWGQGSLVTVSS[human IgG1 constant region with H435A (EU numbers) omitted here]
light: B1 light
notes: copies: 2 + 2
Regarding B5, in assay [1], the “hTRIM21 binding level ratio (variant/control antibody)” value was -0.022. Further, in assay [2], the “mTRIM21 binding level ratio (variant/control antibody)” value stood at 1.62. Also, the “hFcRn binding level ratio (variant/control antibody)” value with human FcRn was 0.01.

B6: MRAH-G1d/MRAL-KT0 H433I (antibody, human IgG1, kappa)
heavy: QVQLQESGPGLVRPSQTLSLTCTVSGYSITSDHAWSWVRQPPGRGLEWIGYISYSGITTYNPSLKSRVTMLRDTSKNQFSLRLSSVTAADTAVYYCARSLARTTAMDYWGQGSLVTVSS[human IgG1 constant region with H433I (EU numbers) omitted here]
light: B1 light
notes: copies: 2 + 2
Turning to B6, the “hTRIM21 binding level ratio (variant/control antibody)” value in assay [1] was -0.002. In assay [2], the “mTRIM21 binding level ratio (variant/control antibody)” value was -0.097. The “hFcRn binding level ratio (variant/control antibody)” value with human FcRn is 0.56.

B7: MRAH-G1d/MRAL-KT0 H435G (antibody, human IgG1, kappa)
heavy: QVQLQESGPGLVRPSQTLSLTCTVSGYSITSDHAWSWVRQPPGRGLEWIGYISYSGITTYNPSLKSRVTMLRDTSKNQFSLRLSSVTAADTAVYYCARSLARTTAMDYWGQGSLVTVSS[human IgG1 constant region with H435G (EU numbers) omitted here]
light: B1 light
notes: copies: 2 + 2
Turning to B7, in assay [1], the “hTRIM21 binding level ratio (variant/control antibody)” value was -0.008. Moreover, in assay [2], the “mTRIM21 binding level ratio (variant/control antibody)” value turned out to be 1.28. In addition, the “hFcRn binding level ratio (variant/control antibody)” value in the assay with human FcRn is 0.03.

B8: MRAH-G1d/MRAL-KT0 H433Y (antibody, human IgG1, kappa)
heavy: QVQLQESGPGLVRPSQTLSLTCTVSGYSITSDHAWSWVRQPPGRGLEWIGYISYSGITTYNPSLKSRVTMLRDTSKNQFSLRLSSVTAADTAVYYCARSLARTTAMDYWGQGSLVTVSS[human IgG1 constant region with H433Y (EU numbers) omitted here]
light: B1 light
notes: copies: 2 + 2
Turning to B8, the “hTRIM21 binding level ratio (variant/control antibody)” value in assay [1] was -0.008. For the same molecule, the “mTRIM21 binding level ratio (variant/control antibody)” value in assay [2] was -0.138. In addition, the “hFcRn binding level ratio (variant/control antibody)” value with human FcRn came out at 0.13.

B9: MRAH-G1d/MRAL-KT0 H435K (antibody, human IgG1, kappa)
heavy: QVQLQESGPGLVRPSQTLSLTCTVSGYSITSDHAWSWVRQPPGRGLEWIGYISYSGITTYNPSLKSRVTMLRDTSKNQFSLRLSSVTAADTAVYYCARSLARTTAMDYWGQGSLVTVSS[human IgG1 constant region with H435K (EU numbers) omitted here]
light: B1 light
notes: copies: 2 + 2
Take B9: the binding result in assay [1] and in assay [2] was “no binding (tested: 100 nM)” throughout. Further, the “hFcRn binding level ratio (variant/control antibody)” value in the assay with human FcRn worked out at 3.52.

B10: MRAH-G1d/MRAL-KT0 H433T (antibody, human IgG1, kappa)
heavy: QVQLQESGPGLVRPSQTLSLTCTVSGYSITSDHAWSWVRQPPGRGLEWIGYISYSGITTYNPSLKSRVTMLRDTSKNQFSLRLSSVTAADTAVYYCARSLARTTAMDYWGQGSLVTVSS[human IgG1 constant region with H433T (EU numbers) omitted here]
light: B1 light
notes: copies: 2 + 2
Regarding B10, the “hTRIM21 binding level ratio (variant/control antibody)” value in assay [1] is -0.007. The “mTRIM21 binding level ratio (variant/control antibody)” value in assay [2] is -0.116. Also, the “hFcRn binding level ratio (variant/control antibody)” value in the assay with human FcRn stood at 0.57.

B11: MRAH-G1d/MRAL-KT0 H435D (antibody, human IgG1, kappa)
heavy: QVQLQESGPGLVRPSQTLSLTCTVSGYSITSDHAWSWVRQPPGRGLEWIGYISYSGITTYNPSLKSRVTMLRDTSKNQFSLRLSSVTAADTAVYYCARSLARTTAMDYWGQGSLVTVSS[human IgG1 constant region with H435D (EU numbers) omitted here]
light: B1 light
notes: copies: 2 + 2
With B11, in assay [1], the “hTRIM21 binding level ratio (variant/control antibody)” value is 0.007. In assay [2], the “mTRIM21 binding level ratio (variant/control antibody)” value came to 0.208. In addition, in the assay with human FcRn, the “hFcRn binding level ratio (variant/control antibody)” value turned out to be 0.03.

B12: MRAH-G1d/MRAL-KT0 H433W (antibody, human IgG1, kappa)
heavy: QVQLQESGPGLVRPSQTLSLTCTVSGYSITSDHAWSWVRQPPGRGLEWIGYISYSGITTYNPSLKSRVTMLRDTSKNQFSLRLSSVTAADTAVYYCARSLARTTAMDYWGQGSLVTVSS[human IgG1 constant region with H433W (EU numbers) omitted here]
light: B1 light
notes: copies: 2 + 2
Consider B12, for which, in assay [1], the “hTRIM21 binding level ratio (variant/control antibody)” value was -0.027. Also, in assay [2], the “mTRIM21 binding level ratio (variant/control antibody)” value is -0.218. In addition, the “hFcRn binding level ratio (variant/control antibody)” value in the assay with human FcRn turned out to be 0.36.
